Experimental data as given in PubChem BioAssay AID624418 (National Center for Advancing Translational Sciences (NCATS), 2012).
Among all 410,000 compounds or so, about 530 (0.13%) were called active. The inconclusive results got no clear call from the source; some entries with a clear call stand among them for comparison. Calls come from the whole dose curve; as a rule, active = well fitted inhibition curve with a large enough effect; inconclusive = small, poorly fitted or top-dose-only effect, or another doubt; inactive = no such curve, though single readings can be large or run the other way. Potencies beside an inconclusive call are fits to weak or partial responses and may not hold up. Where a SMILES comes first, the peptide text is derived from it. Bridges are numbered along the chain shown (N, C = ends). [ ]: non-standard residue; d: D form.

Assay: qHTS of GLP-1 Receptor Inverse Agonists: Cytotox Screen
Conditions: HEK293 cAMP-luciferase reporter cells, luminescence, 24 h; activity change, negative = inhibition: at 38.3 µM (top of the series) unless noted
Summary of the method: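 Step one: seed cells (200 cells/uL, DMEM with 10% Nu serum, 1% pen-strep). Step two: 12-hour incubation at 37 deg C. Step three: pin 23 nL compound, incubate 24 hr. Step four: add luciferase reagent, read luminescence 12 min later.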
% is set by controls: 0 for no effect and ±100 for the full control effect; potency is the fitted concentration of half-maximal effect.

Row | SMILES | Potency | activity change, negative = inhibition
1 | COc1ccc(OC)c(NC2=C(c3ccccc3)C(=O)c3ccccc32)c1 | inconclusive: 1.58 µM [inhibitor, full curve] | –
2 | COc1ccccc1N1CCN(C(=O)c2c(-c3ccccc3Cl)noc2C)CC1 | inconclusive: 8.91 µM [inhibitor, partial curve, poor fit] | –
3 | Cc1cc2cc(CNC(=S)Nc3ccc(OC(F)(F)F)cc3)ccc2[nH]1 | inconclusive: 28.2 µM [inhibitor, single point] | –
4 | N#CC(C#N)=C(N)CSc1cccc[n+]1[O-] | active: 4.47 µM | –
5 | CCn1c(C)nc2cc(C(=O)NNC(=O)CN(C)S(=O)(=O)c3ccc(NC(C)=O)cc3)ccc21 | – | inactive: 6.27%
6 | CN1CCN(C2Cc3ccc(Cl)cc3Sc3ccc(F)cc32)CC1 (stereo unspecified) | inconclusive: 28.2 µM [inhibitor, single point] | –
7 | Nc1nnc(SCC(=O)OCC(=O)Nc2ccccc2F)s1 | – | inactive: -1.98%
8 | Cc1ccc(SCC2(O)CCN(S(=O)(=O)c3ccc(Cl)cc3)CC2)cc1 | – | inactive: 1.74%
9 | CCc1ccc(OCC(=O)NC(=S)Nc2cccc(CO)c2)c(Br)c1 | – | inactive: -20.5%
10 | NCCCn1c(C(=O)c2ccc(Cl)cc2)c2ccc(C(F)(F)F)cc2[n+]1[O-] | inconclusive: 28.2 µM [inhibitor, single point] | –
11 | CC(C)C(=O)N1CCN(c2ccc(NC(=O)c3ccc([N+](=O)[O-])o3)cc2Cl)CC1 | inconclusive: 22.4 µM [inhibitor, single point] | –
12 | COCCCn1c(=O)c2sccc2n(Cc2ccccc2C)c1=O | inconclusive: 0.501 µM [inhibitor, full curve, poor fit] | –
13 | Cc1ccccc1CNC(=O)c1ccc(NC(=O)c2nsc3ccccc23)cc1 | – | inactive: 2.62%
14 | CCOC(=O)[C@@H]1[C@H]2COc3ccc(Br)cc3[C@@H]2N2C(=O)N(c3cccc(F)c3)C(=O)[C@@]12C | – | inactive: -7.15%
15 | CN=C1C=C/C(=N/N=c2\ccn(O)cc2C)C=C1C | inconclusive: 14.1 µM [inhibitor, partial curve, poor fit] | –
16 | C=CCNC(=S)NNC(=O)C(CCCC)CC(C)(C)O (stereo unspecified) | inconclusive: 28.2 µM [inhibitor, single point] | –
17 | COc1ccc(NC(=O)c2cc(-c3ccccc3OC)on2)cc1 | inconclusive: 8.91 µM [inhibitor, partial curve, poor fit] | –
18 | CCOC(=O)c1cnn(-c2ccc(OC)cc2)c1C1CCN(C(=O)OC(C)(C)C)CC1 | – | inactive: 1.83%
19 | Cc1ccc(N/N=C(\C#N)C(=N)N2CCOCC2)cc1 | inconclusive: 8.91 µM [inhibitor, partial curve, poor fit] | –
20 | CCN1/C(=C/c2ccc3cc(C)ccc3[n+]2CC)Sc2cc(C)c(C)cc21 | inconclusive: 11.2 µM [inhibitor, partial curve] | –
21 | COC(=O)CNC(=O)C1CCN(C(=O)OCc2ccccc2)CC1 | – | inactive: 2.62%
22 | CN(C)c1ccc(N=Nc2ccccc2C(=O)OCC(=O)NCC2CCCCC2)cc1 | inconclusive: 10 µM [inhibitor, partial curve, poor fit] | –

Row | SMILES | Potency | activity change, negative = inhibition
23 | O=C(NC(c1ccc(F)cc1)c1ccc2ccccc2n1)C1CCN(CCOc2ccc(Cl)cc2Cl)CC1 (stereo unspecified) | active: 11.2 µM | –
24 | Cc1cc(C)n(-c2cc(N3CCN(C(=O)c4ccc(C(C)(C)C)cc4)CC3)ccc2[N+](=O)[O-])n1 | inconclusive: 11.2 µM [inhibitor, partial curve, poor fit] | –
25 | O=C(CCNC(=O)c1ccccc1Cl)NCCCSc1ccccc1 | – | inactive: -24.8%
26 | CCOCCn1c(=NC(=O)CSCC(=O)N2CCOCC2)sc2cc(OC)ccc21 | inconclusive: 11.2 µM [inhibitor, single point] | –
27 | Cn1c(SCC(=O)N/N=C/c2ccc([N+](=O)[O-])s2)nnc1-c1ccc(Cl)cc1 | inconclusive: 11.2 µM [inhibitor, single point] | –
28 | CCC(CO)NC(=O)C(=O)Nc1c2c(nn1-c1ccc(F)cc1)CSC2 (stereo unspecified) | – | inactive: -1.36%
29 | Fc1ccccc1N1CCN(c2cnc3ccccc3n2)CC1 | – | inactive: -2.57%
30 | OCCNCc1c(OCc2ccc(Cl)cc2)ccc2ccccc12 | inconclusive: 11.2 µM [inhibitor, single point] | –
31 | Cc1onc(-c2ccccc2Cl)c1C(=O)O/N=C(\N)c1ccccc1 | inconclusive: 10 µM [inhibitor, partial curve, poor fit] | –
32 | O=C1CCCN1CCC1CCCCN1Cc1nc(COc2ccccc2)no1 (stereo unspecified) | inconclusive: 2.51 µM [inhibitor, partial curve, poor fit] | –
33 | Oc1ccc(/C=N/Nc2ccnc3cc(Cl)ccc23)cc1O | inconclusive: 12.6 µM [inhibitor, single point] | –
34 | O=C(CSc1ccc(-c2nc3ccccc3[nH]2)cn1)Nc1ccc(S(=O)(=O)NC2CC2)cc1 | inconclusive: 28.2 µM [inhibitor, single point] | –
35 | COc1ccccc1-c1cc(C(F)(F)F)nc(S(=O)(=O)CCCC(=O)N2CCOCC2)n1 | inconclusive: 7.08 µM [inhibitor, partial curve, poor fit] | –
36 | C#CCOCCOCCOCCNc1nc(N2CCN(C(=O)[C@H](CCCCN)n3cc(CC(C)O)nn3)CC2)nc(N2CCN(C(=O)[C@H](CCCCN)n3cc(CC(C)O)nn3)CC2)n1 (stereo partly specified) | – | inactive: 0.521%
37 | COc1ccc(-c2cc(-c3n[nH]c(=S)n3-c3ccccc3OC)[nH]n2)cc1 | – | inactive: 0.25%
38 | COc1cc(C(C)=O)ccc1OCCN1CCC(Cc2ccccc2)CC1 | inconclusive: 28.2 µM [inhibitor, single point] | –
39 | CCOc1cccc(NC(=O)/C(C#N)=C\c2cn(CC(=O)O)c3ccccc23)c1 | inconclusive: 8.91 µM [inhibitor, partial curve, poor fit] | –
40 | COc1ccc(/C=C/C(=O)c2ccc3c(c2)OCCO3)cc1[N+](=O)[O-] | inconclusive: 20 µM [inhibitor, single point] | –
41 | c1ccc(CNCCCNCCCCNCCCNCc2ccccc2)cc1 | inconclusive: 5.01 µM [inhibitor, full curve, poor fit] | –
42 | CCOc1ccccc1NC(=S)NC1CCCCC1 | inconclusive: 15.8 µM [inhibitor, single point] | –
43 | Cc1ccc(S(=O)(=O)Cc2ccc(C(=O)N3CCN(c4cccc(C)c4C)CC3)o2)cc1 | inconclusive: 1 µM [inhibitor, full curve, poor fit] | –
44 | CC[C@H](C)[C@@H]1NC(=O)[C@@H](CC(C)C)NC(=O)[C@H](C(C)C)NC(=O)[C@H]2CSSC[C@H](NC1=O)C(=O)N2 (cyclo(C[dC]V[dL]I); disulfide 1-2) | inconclusive: 1.78 µM [inhibitor, full curve, poor fit] | –

Row | SMILES | Potency | activity change, negative = inhibition
45 | CC(C)CCC(O)(c1ccccc1)C(CN1CCOCC1)c1ccccc1 (stereo unspecified) | – | inactive: -23%
46 | COc1ccccc1-c1nnc(SCC(=O)Nc2ccccc2F)o1 | – | inactive: 3.18%
47 | COc1ccc(-c2nc(-c3ccc(O)cc3O)cs2)cc1OC | inconclusive: 12.6 µM [inhibitor, single point] | –
48 | CC(=O)Nc1nc2ccccc2n1Cc1ccccc1C | inconclusive: 17.8 µM [inhibitor, partial curve, poor fit] | –
49 | CCOCCc1nnc(NC(=O)Cc2ccccc2)s1 | – | inactive: -6.14%
50 | Cc1cc(C(=O)CSc2nc(N)cc(=O)[nH]2)c(C)n1-c1ccc(OC(F)F)cc1 | – | inactive: 5.23% [at 7.66 µM]
51 | Cc1ccc(NC(=O)ON=C2CCCC2)cc1 | inconclusive: 28.2 µM [inhibitor, single point] | –
52 | O=[N+]([O-])c1ccc(/C=N/NC(=S)Nc2ccccc2C(F)(F)F)o1 | – | inactive: -28.4%
53 | CCOc1ccc(NC(=O)c2cc(S(=O)(=O)N3CCCCCC3)cn2C)cc1 | – | inactive: -3.75%
54 | Cc1cccc(NC(=O)c2ccc3c(c2)OCCO3)c1 | – | inactive: -13.7%
55 | O=C(C(=Cc1ccc(F)cc1)C(=O)c1ccccc1)c1ccccc1 | inconclusive: 31.6 µM [inhibitor, single point] | –
56 | N#CC1c2ccccc2C=CN1C(=O)N(c1ccccc1)c1ccccc1 (stereo unspecified) | inconclusive: 6.31 µM [inhibitor, partial curve, poor fit] | –
57 | Cc1cc2nc(/C=C/c3cccnc3)[nH]c2cc1C | inconclusive: 2.24 µM [inhibitor, partial curve, poor fit] | –
58 | CC(=O)Nc1ccc(N=C(C2=C(O)c3ccccc3C2=O)c2ccccc2)cc1 | inconclusive: 15.8 µM [inhibitor, partial curve, poor fit] | –
59 | CCOc1cc(S(=O)(=O)NCc2ccc(OC)cc2)c(OCC)cc1-n1cnnn1 | inconclusive: 10 µM [inhibitor, partial curve] | –
60 | N/C(=N\N=Cc1ccc2c(c1)OCO2)NN=Cc1ccc2c(c1)OCO2 | inconclusive: 3.55 µM [inhibitor, partial curve, poor fit] | –
61 | Nc1ccc2c(c1)-c1ccc(F)cc1C2=O | inconclusive: 2.82 µM [inhibitor, partial curve, poor fit] | –
62 | CCc1ccc(C(C)NC(=S)NCc2ccc(F)cc2)cc1 (stereo unspecified) | inconclusive: 11.2 µM [inhibitor, partial curve, poor fit] | –
63 | O=C(NCCCn1cccn1)C1CCC(=O)N(Cc2cccc(C(F)(F)F)c2)C1 (stereo unspecified) | inconclusive: 28.2 µM [inhibitor, single point] | –
64 | ON/C=N/C(=S)Nc1ncc(C(F)(F)F)cc1Cl | inconclusive: 8.91 µM [inhibitor, partial curve, poor fit] | –
65 | C=CCc1ccc(O)c(-c2ccc(O)c(CC=C)c2)c1 | – | inactive: -21.6%
66 | CC(=O)Oc1ccc2ccccc2c1C(NC(=O)Cc1ccccc1)c1ccccc1Cl (stereo unspecified) | inconclusive: 20 µM [inhibitor, single point] | –
